Source: the supplement of paper PMC8183993
Where “and” joins values, the source holds several entries; their conditions need not be identical. Equal values may be shown once. Where a name gives a salt, the structure may show the parent alone. ± gives the standard deviation of the averaged measurements. Whole data set: some 3,100 compounds, median “mean cytoplasmic OPP incorporation (global translation) relative to DMSO” near 100, cut for the lowest 2% near 56. This is one part of the list. Peptide text beside a SMILES is read from it. * marks the point of attachment. Cbz = O=C(OCc1ccccc1)*; CH2F = FC*

Test system: U2OS
Test: mean cytoplasmic OPP incorporation (global translation) relative to DMSO (% of DMSO); higher = more protein synthesis
Conditions: 10 µM; 24 h
Experimental: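 Primary image-based screen in U2OS cells: compounds at 10 uM for 24 h, then a 1 h o-propargyl-puromycin (OPP) pulse, click labelling, and high-throughput microscopy. Mean cytoplasmic OPP intensity and nuclei count were normalised to DMSO wells within each plate (DMSO = 100) and averaged over triplicate plates.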

Row | Structure (SMILES) | mean cytoplasmic OPP incorporation
1 | NS(=O)(=O)c1cc(C(=O)O)cc(N2CCCC2)c1Oc1ccccc1 [Piretanide] | 107
2 | C[N+]1(C)[C@@H]2C[C@@H](OC(=O)C(O)(c3cccs3)c3cccs3)C[C@H]1[C@@H]1O[C@@H]12 [Tiotropium Bromide hydrate] | 107
3 | CC(C(=O)O)c1ccc2c(c1)Cc1cccnc1O2 (configuration not stated) [Pranoprofen] | 102
4 | CSc1ccc2c(c1)C(N1CCN(C)CC1)Cc1ccccc1S2 (configuration not stated) [Methiothepin maleate] | 113 ± 2.2
5 | COC(=O)C[C@H](NC(=O)[C@H](C)NC(=O)[C@@H](NC(=O)OCc1ccccc1)C(C)C)C(=O)CF (Cbz-Val-Ala-Asp(OMe)-CH2F) | 94.9
6 | O=C(/C=C/c1ccc2ccccc2n1)c1ccncc1 | 26.3
7 | CC(=O)Nc1ccccc1 [Acetanilide (Antifebrin)] | 102
8 | COC(c1ccccc1)(c1ccccc1)[C@H](Oc1nc(C)cc(C)n1)C(=O)O [Ambrisentan] | 101.2 ± 0.59
9 | COC(=O)C1=C(C)NC(C)=C(C(=O)OCCN2CCN(C(c3ccccc3)c3ccccc3)CC2)C1c1cccc([N+](=O)[O-])c1 (configuration not stated) [Manidipine (Manyper)] | 108
10 | Cc1c(C)c2c(c(C)c1O)CCC(C)(COc1ccc(CC3SC(=O)NC3=O)cc1)O2 (configuration not stated) [Troglitazone] | 103 ± 3.5
11 | Cc1ccc(O)c(N=Nc2ccccc2)n1 | 90.4
12 | C[N+]1(C)[C@@H]2CC[C@H]1C[C@@H](OC(=O)C(O)c1ccccc1)C2 (some centres not stated) [Homatropine Methylbromide] | 103
13 | CC(C)=CC[C@@H](O)C1=CC(=O)c2c(O)ccc(O)c2C1=O [Shikonin] | 94.2
14 | NC(=O)c1cc[n+](CC2=C(C(=O)[O-])N3C(=O)[C@@H](NC(=O)[C@@H](c4ccccc4)S(=O)(=O)O)[C@H]3SC2)cc1 [Cefsulodin sodium salt] | 102
15 | CCCCCC#CCC#CCC#CCC#CCCCC(=O)O [5,8,11,14-Eicosatetraynoic acid] | 97.4
16 | C[C@]12CC[C@H](O)CC1=CC[C@@H]1[C@@H]2CC[C@]2(C)C(n3cnc4ccccc43)=CC[C@@H]12 [Galeterone (TOK-001)] | 121
17 | CC1=C(/C=C/C(C)=C/C=C/C(C)=C/C(=O)O)C(C)(C)CCC1 [Retinoic acid] | 104 ± 4.3
18 | CC1=C(/C=C/C(C)=C/C=C/C(C)=C/C(=O)O)C(C)(C)CCC1 [Retinoic acid, all trans] | 96
19 | CC1=C(/C=C/C(C)=C/C=C/C(C)=C/C(=O)O)C(C)(C)CCC1 [Retinoic Acid] | 103
20 | O=C(Nc1nc2cccc(-c3ccc(CN4CCS(=O)(=O)CC4)cc3)n2n1)C1CC1 [Filgotinib£¬GLPG0643)] | 96.6
21 | N=C(N)NS(=O)(=O)c1ccc(N)cc1 [Sulfaguanidine] | 103
22 | CC(=O)Oc1ccccc1C(=O)O [Acetylsalicylic acid] | 104
23 | CCCCNC(=O)[C@@H]1Cc2ccccc2N1C(=O)[C@@H](N)CC [Butabindide oxalate] | 99.6
24 | CNS(=O)(=O)CCc1ccc2[nH]cc(C3CCN(C)CC3)c2c1 [Naratriptan HCl] | 101
25 | O=C(O)c1ccc(-c2c[nH]c3ncc(-c4ccccc4)cc23)cc1C1CCCC1 | 104 and 110
26 | Cc1ncc(CO)c(CO)c1O [Pyridoxine hydrochloride] | 88.9

Row | Structure (SMILES) | mean cytoplasmic OPP incorporation
27 | CN1CCc2cc(Cl)c(O)cc2[C@@H](c2ccccc2)C1 | 96.2
28 | CC1(C)[C@H](C(=O)O)N2C(=O)C[C@H]2S1(=O)=O [Sulbactam sodium (Unasyn)] | 105
29 | CC1(C)[C@H](C(=O)O)N2C(=O)C[C@H]2S1(=O)=O [Sulbactam] | 97.4
30 | N[C@@H](CCC(=O)N[C@@H](CS)C(=O)NCC(=O)O)C(=O)O [Glutathione] | 102
31 | c1ccc(-c2[nH]ncc2-c2ccnc3ccccc23)nc1 | 93.2
32 | CCC1(c2ccccc2)NC(=O)N(C)C1=O (configuration not stated) [Mephenytoin] | 101
33 | NC(=O)CNCCC(c1ccccc1)c1ccccc1 [N20C hydrochloride] | 98.5
34 | CCc1c(C)[nH]c2c1C(=O)C(CN1CCOCC1)CC2 (configuration not stated) [Molindone hydrochloride] | 97
35 | C#Cc1cccc(Nc2ncnc3cc4c(cc23)OCCOCCOCCO4)c1 [Icotinib] | 106 ± 3.9
36 | C=CC(=O)Nc1cc(Nc2nccc(-c3cn(C)c4ccccc34)n2)c(OC)cc1N(C)CCN(C)C | 103
37 | C=C1C[C@@]2(O)O[C@@]3(C[C@H]2C(C)C)[C@@H](C)CC[C@@H]13 [Curcumol] | 101
38 | O=C(O)COCCN1CCN(C(c2ccccc2)c2ccc(Cl)cc2)CC1 (configuration not stated) [Cetirizine dihydrochloride] | 99.9 ± 2.8
39 | Cn1cc(-c2cnn3c(N)c(Br)c([C@@H]4CCCNC4)nc23)cn1 | 72.9
40 | N[C@@H]1CONC1=O [D-cycloserine] | 104
41 | CCCSc1nc(N[C@@H]2C[C@H]2c2ccc(F)c(F)c2)c2nnn([C@@H]3C[C@H](OCCO)[C@@H](O)[C@H]3O)c2n1 [Ticagrelor] | 99.7
42 | C=CC(=O)Nc1cccc(Nc2nc(Nc3ccc(Oc4ccnc(C(=O)NC)c4)cc3)ncc2F)c1 | 100
43 | CCCOC(=O)c1cc(O)c(O)c(O)c1 [N-Propyl gallate] | 123
44 | CC(C)c1cc(-c2n[nH]c(=O)n2-c2ccc3c(ccn3C)c2)c(O)cc1O [Ganetespib (STA-9090)] | 70.9
45 | O=C(O)C1CCCN(CCC=C(c2ccccc2)c2ccccc2)C1 (configuration not stated) | 96.8
46 | CC(=O)O[C@]1(C(C)=O)CC[C@H]2[C@@H]3C=C(Cl)C4=CC(=O)[C@@H]5C[C@@H]5[C@]4(C)[C@H]3CC[C@@]21C [Cyproterone acetate] | 113.6 ± 1.1
47 | COc1cccc(CCc2ccccc2OCC[C@@H]2C[C@@H](O)CN2C)c1 | 113
48 | Clc1ccc(CO/N=C(\Cn2ccnc2)c2ccc(Cl)cc2Cl)c(Cl)c1 [Oxiconazole Nitrate] | 99.2
49 | COc1ccc(-c2ccc3ncc4c(c3c2)n(-c2ccc(N3CCNCC3)c(C(F)(F)F)c2)c(=O)n4C)cn1 | 33.4 ± 16
50 | C#C[C@]1(OC(C)=O)CC[C@H]2[C@@H]3CCC4=CC(=NO)CC[C@@H]4[C@H]3CC[C@@]21CC (mixture of isomers) [Norgestimate] | 106
51 | Clc1ccc(Cn2c(CN3CCCC3)nc3ccccc32)cc1 [Clemizole hydrochloride] | 111
52 | COc1cc2nc(N(C)CCCNC(=O)C3CCCO3)nc(N)c2cc1OC (configuration not stated) [Alfuzosin hydrochloride] | 106

Row | Structure (SMILES) | mean cytoplasmic OPP incorporation
53 | CC1(C)CC(=O)c2c(C(F)(F)F)nn(-c3ccc(C(N)=O)c(N[C@H]4CC[C@H](O)CC4)c3)c2C1 | 95.7
54 | O=C(O)/C=C/c1ccc(O)c(O)c1 [Caffeic acid] | 108
55 | CCCCc1nc2cc(/C=C/C(=O)NO)ccc2n1CCN(CC)CC [SB939 (Pracinostat)] | 57.8
56 | N=C(N)Nc1ccc(C(=O)Oc2ccc3cc(C(=N)N)ccc3c2)cc1 [Nafamostat mesylate] | 102
57 | NC(N)=Nc1ccc(Cl)cc1 [4-Chlorophenylguanidine hydrochloride] | 94.4
58 | O=C(O)Cc1nn(Cc2ccc(Br)cc2F)c(=O)c2ccccc12 [Statil] | 98.2
59 | CC(=O)Nc1nc2c(Oc3cc(-c4ccc(C(F)(F)F)cc4)ncn3)cccc2s1 | 102
60 | N[C@@H](Cc1c[nH]c2ccc(O)cc12)C(=O)O [5-hydroxytryptophan (5-HTP)] | 106
61 | CN1C[C@@H]2C[C@H]1CN2c1cc2c(cc1F)c(=O)c(C(=O)O)cn2C1CC1 [Danofloxacin Mesylate] | 101
62 | CC(C)n1nc(-c2ccc3oc(N)nc3c2)c2c(N)ncnc21 | 53.5 ± 16
63 | COC(=O)C1=C(C)NC(C)=C(C(=O)NCCCN2CCC(c3ccccc3)(c3ccccc3)CC2)C1c1ccc([N+](=O)[O-])cc1 (configuration not stated) | 99.9
64 | Oc1ccc(OC2CCCCO2)cc1 (configuration not stated) [Deoxyarbutin] | 96.2
65 | Nc1cccc2c1C(=O)N(C1CCC(=O)NC1=O)C2=O (configuration not stated) [Pomalidomide] | 102
66 | Cc1ccc(CC2(O)CCN(CCOc3ccc(O)cc3)CC2)cc1 | 108
67 | N=C(N)NC(=O)Cc1c(Cl)cccc1Cl [Guanfacine hydrochloride] | 105 ± 3.8
68 | O=C1Nc2ccccc2/C1=C1/Nc2ccccc2C1=O [Indirubin] | 106
69 | O=C(O)C(O)Cc1ccc(O)c(O)c1 (configuration not stated) [Sodium Danshensu] | 92
70 | C[n+]1cc2c3c(ccc2c2ccc4cc5c(cc4c21)OCO5)OCO3 [Sanguinarine chloride] | 42.4
71 | Cc1cc(C)c(Nc2ccnc(Nc3ccc(C#N)cc3)n2)c(C)c1 [Dapivirine] | 121
72 | Clc1ccc(CSC(Cn2ccnc2)c2ccc(Cl)cc2Cl)cc1 (configuration not stated) [Sulconazole nitrate] | 93.7
73 | O=C(c1ccc(Nc2nccc(-c3cc4ccccc4s3)n2)cc1)N1CCC(N2CCCC2)CC1 | 107
74 | Nc1ncnc2c1ncn2[C@@H]1O[C@H](CO)[C@@H](O)[C@H]1O [Adenosine (Adenocard)] | 97.3
75 | O=C(/C=C/c1ccccc1)NC(NC(=S)Nc1cccc2cccnc12)C(Cl)(Cl)Cl (configuration not stated) [Salubrinal] | 108
76 | CC(=O)O[C@@]12CO[C@@H]1C[C@H](O)[C@@]1(C)C(=O)[C@H](O)C3=C(C)[C@@H](OC(=O)[C@H](O)[C@@H](NC(=O)OC(C)(C)C)c4ccccc4)C[C@@](O)([C@@H](OC(=O)c4ccccc4)[C@H]21)C3(C)C [Docetaxel (Taxotere)] | 92.7
77 | CC(=O)O[C@@]12CO[C@@H]1C[C@H](O)[C@@]1(C)C(=O)[C@H](O)C3=C(C)[C@@H](OC(=O)[C@H](O)[C@@H](NC(=O)OC(C)(C)C)c4ccccc4)C[C@@](O)([C@@H](OC(=O)c4ccccc4)[C@H]21)C3(C)C [Docetaxel] | 81.3
